Source: the supplement of paper PMC10126150
Sequences with one replicate were seen in a single cluster, so their values are uncertain.

Test system: ATP
Assay: switch fluorescence ratio, 500 uM ATP over buffer (Cy3 cluster intensity, sum of 5 cycles each) (fold (ratio)); higher = stronger signal-on switching upon ATP binding; sequences stand for … in TCGTCGGCAGCGTCAGATGTGTATAAGAGACAGTTTTTTTTTTTTTTTTTTTTTTTTT…TC
Details: aptamer strand: ATP DNA aptamer (quencher-CACCTGGGGGAGTATTGCGGAGGAAGG + anchor), 100 nM annealed; ATP concentration: 500 uM; one replicate
Outline: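 Between each of five buffer/ATP cycles, the flow-cell was stripped with NaOH and re-annealed. Each cycle imaged Cy3-labelled switching-strand clusters, annealed to 100 nM quencher-labelled ATP aptamer on a modified Illumina MiSeq flow-cell, first in selection buffer and then after 15 min with 500 uM ATP at 22 °C. The fluorescence ratio is summed target-cycle over summed buffer-cycle Cy3 intensity per cluster, averaged per switch-domain sequence, with clusters outside 100-1000 RFU excluded.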
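Further: ATP exposure 15 min at 22 °C before imaging.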

Row | Sequence | switch fluorescence ratio
1 | ACAGGGTTT | 0.979
2 | AGTTTTCG | 1
3 | CCGACGATGT | 5.24
4 | CAAAGGTAGG | 1.03
5 | AGATGACATG | 1.04
6 | CTTAAGAAAA | 1.05
7 | TTATCATCC | 1.03
8 | TCGATCAAA | 1.01
9 | GGAAAATGAA | 0.97
10 | TAGGCGTGTA | 0.999
11 | GGTTTCATCG | 0.978
12 | TCGAGTCTCT | 0.998
13 | GCGAAAAGTA | 1
14 | ACATTGCATG | 1.01
15 | TTCACGTTGA | 1.07
16 | AACTTGGGCG | 0.989
17 | ACTAAGGATA | 0.962
18 | AATATCTATT | 0.995
19 | AAGCCGTCTA | 1.01
20 | ATTGATTGCC | 1.01
21 | ATCCAAAGA | 1.04
22 | TTTCAGTGCG | 0.985
23 | GGGGCTAAGG | 1

Row | Sequence | switch fluorescence ratio
24 | AGATAACAAA | 1.08
25 | AGATAGAACC | 1.02
26 | GACCTAGGCA | 0.988
27 | GTTGTTAATA | 0.998
28 | CAGAGCAATG | 3.19
29 | TTGGCGCGA | 1.11
30 | GGTTGACGAA | 1.06
31 | TTTAGTACAA | 1.01
32 | GCAGTATCGT | 0.982
33 | GCGCGCTGGC | 1.02
34 | ACGGGATCCT | 1.03
35 | GCGATAAGCA | 1.08
36 | ATGAGTAATT | 0.959
37 | CGTTTCGGGC | 1.05
38 | TAAATCCGCG | 1.17
39 | CGTTTGTCGA | 0.94
40 | CAGGGGTCGG | 1
41 | GGCTAAGTTG | 1.02
42 | AGTTCACCGT | 1.03
43 | GAAATAATTG | 0.98
44 | TGTCTACCCA | 1.06
45 | ATTCGCCCGG | 1.14
46 | CGTTTGGAGT | 0.989

Row | Sequence | switch fluorescence ratio
47 | GCCGTGGCTT | 0.972
48 | CTATACGAAC | 1.45
49 | GGTTTAATCT | 1.02
50 | TGCCCTCGCC | 1.43
51 | GCGTTACCTG | 1.01
52 | GGTGAGCGTG | 0.982
53 | CGTAATATCA | 1.13
54 | GTCTTCGGGC | 1.02
55 | CAGAGCAGAT | 1.58
56 | CACAGTGTCG | 1
57 | CCACCAGTAG | 2.2
58 | AGACTTTAAG | 0.974
59 | TGGAAATCGG | 0.935
60 | CAGCTGTCCG | 0.994
61 | GGGATTAAAT | 0.997
62 | ATTCATCTCA | 1
63 | TCATAATCCC | 1.03
64 | GCACCACACT | 1.29
65 | AAAGCTCATG | 1
66 | TAGAGCCTAC | 0.991
67 | AATAAATGGC | 1.01
68 | CGTAGATT | 0.964
69 | TCAATCCCGA | 1.04

Row | Sequence | switch fluorescence ratio
70 | CAAGAGCTTC | 1.09
71 | TAGAGGGTGA | 0.994
72 | CTTTACCAA | 1.03
73 | CCGATAATCC | 1.77
74 | AATTTACTTG | 1.03
75 | TTGAGTATTG | 1.03
76 | GGTTAGGAAT | 1.01
77 | AATGCTAATT | 1.04
78 | TAAGAGTCAG | 1
79 | TTTACTGTCG | 1.02
80 | TTGCGTCTTG | 0.978
81 | GGGTTAGGT | 1
82 | TCACCCATGT | 1.07
83 | TATATCATAT | 1
84 | GTAGCCTAAG | 1.01
85 | AGAAGTTAAA | 1.03
86 | TCTATCGTCT | 0.96
87 | TGATGCGTCC | 1.03
88 | AGATTTCGG | 0.955
89 | GACATGCCG | 1.08
90 | GGATATAAGG | 1.06
91 | CTCCTGGGAG | 0.957
92 | GCCCCCTTTT | 1

Row | Sequence | switch fluorescence ratio
93 | GGGCCTATC | 0.96
94 | AACTATACGA | 1.23
95 | TCGAATGGG | 1
96 | TGGCTTAGGT | 0.978
97 | AACAATTTTG | 1
98 | GATGGGAAGC | 0.972
99 | CATGGACTGG | 0.998
100 | GCTTTTACGA | 1.08
101 | CCATTCACTA | 1.03
102 | GATCGTGCAA | 1.26
103 | GGCGGCTAAG | 1
104 | CAATTTGCCA | 0.932
105 | GCAGGGGATG | 0.97
106 | AGTAGAGAAA | 1.02
107 | CGAGTTTATA | 0.982
108 | TTACCTCGTT | 1.03
109 | AGAGGTCACT | 0.982
110 | TCGCCGTTTG | 1.03
111 | TTTAGACTCT | 0.956
112 | TCGCCCGTCT | 0.932
113 | TCCTTTGTA | 1.08
114 | GGTTGGATTG | 1.01
115 | TATAAGCGAA | 0.989

Row | Sequence | switch fluorescence ratio
116 | TGCCTGGAAG | 0.995
117 | GCGCCATCAG | 0.994
118 | ATGGGTTGTA | 1
119 | TGGTCTATCG | 1
120 | GTCGGGGAAT | 1.02
121 | ATGCTAATCA | 1.06
122 | GTTTTTTCAC | 1.02
123 | CAATCGCCTC | 1.12
124 | CGAATCAGTG | 0.973
125 | CACGACAGTC | 1.07
126 | TTGATACCTC | 1
127 | TTTAAGAACA | 1
128 | GAGTTTTGTC | 1.01
129 | GTTCACTTAT | 1.01
130 | CCAGACATAC | 4.19
131 | TTCTAAGGCG | 1.02
132 | AAGTTATAGG | 1.03
133 | TGGCCGTGGG | 0.978
134 | GAAGGACCCC | 1.01
135 | CGCTATGCGT | 1.02
136 | CTAGTACATG | 1.02
137 | TGTTCACCGG | 1.01
138 | TGATGTCTGA | 1.02

Row | Sequence | switch fluorescence ratio
139 | TGTTCTTAGC | 1.01
140 | AAGCTCTCAT | 0.999
141 | TTTCTTCTGT | 0.961
142 | TATTTACCAT | 1.06
143 | GGGCTCTA | 0.976
144 | TATATTAAAA | 1
145 | TCAGAGCTTT | 0.979
146 | GGGTAGGCAC | 1.01
147 | GCTTTGAGCT | 0.981
148 | TCTTATGGTA | 1.02
149 | ACAGGCTTCT | 1.02
150 | ACGGACAGTG | 0.988
151 | ACCTCTTCTT | 1.01
152 | CTGTATCTAC | 1.07
153 | AGTAGTGAAG | 1.02
154 | TAACTAGTTC | 0.972
155 | GGATAAACTT | 1
156 | CATCAACCTG | 0.988
157 | TGATATTTGA | 1.02
